# Source: the supplement of paper PMC4604168 (melanoma cell lines)
# This is one part of the list. Many values rest on one well or one pass, so single values are uncertain.
# How the values were obtained:
# Test in all cases: cell count relative to DMSO control; melanoma cells; higher = more viable cells
# Conditions in all cases: library dose: standard library concentration; 72 h
# G361 = system: G361
# IPC-298 = system: IPC-298
# IST-MEL1 = system: IST-MEL1
# LB2518-MEL = system: LB2518-MEL
# LOXIMVI = system: LOXIMVI
# MEL-HO = system: MEL-HO
# MZ2-MEL = system: MZ2-MEL
# MeWo = system: MeWo
# RPMI7951 = system: RPMI7951
# RVH-421 = system: RVH-421
# 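Note: cells treated in 1,536-well plates, then fixed and DAPI-stained, with nuclei counted from automated high-throughput microscope images.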
SMILES,cell count (G361) [%],cell count (IPC-298) [%],cell count (IST-MEL1) [%],cell count (LB2518-MEL) [%],cell count (LOXIMVI) [%],cell count (MEL-HO) [%],cell count (MZ2-MEL) [%],cell count (MeWo) [%],cell count (RPMI7951) [%],cell count (RVH-421) [%]
"NCC(=O)Nc1ccc(-n2nc(C(F)(F)F)cc2-c2ccc3c(ccc4ccccc43)c2)cc1 + Cn1cc(/C=C2\C(=O)Nc3cccnc32)c2ccccc21 [GW441756] (first compound 5 µM, partner dose 2 µM)",73.6,47.9,74.3,67.6,77.8,68.1,74.6,104,79.2,78
"C[C@]1(c2nc3c(C(N)=O)cccc3[nH]2)CCCN1 [Veliparib] + CC(C)(C)c1cnc(CSc2cnc(NC(=O)C3CCNCC3)s2)o1 [SNS-032] (first compound 7 µM, partner dose 0.05 µM)",102,110,79.9,61.5,54.8,83.6,85.5,88.4,62.5,80.1
"NC(=O)Nc1cc(-c2cccc(F)c2)sc1C(=O)N[C@H]1CCCNC1 + CCc1ccc(CCOc2ccc(CC3SC(=O)NC3=O)cc2)nc1 [pioglitazone] (first compound 0.1 µM, partner dose 10 µM)",78,78.2,94,70.6,93.3,81.2,95.8,71.6,23.6,107
"OCCn1cc(-c2cnc3nnn(Cc4ccc5ncccc5c4)c3n2)cn1 + c1cc(-c2cnn3cc(-c4ccc(OCCN5CCCCC5)cc4)cnc23)ccn1 [Dorsomorphin] (first compound 5 µM, partner dose 2 µM)",75.7,91.1,100,72.7,128,90.8,97.6,86.5,83.1,112
"OCCn1cc(-c2cnc3nnn(Cc4ccc5ncccc5c4)c3n2)cn1 + Oc1nc(-c2ccc(C(F)(F)F)cc2)nc2c1CSCC2 [XAV939] (first compound 5 µM, partner dose 10 µM)",103,88.8,89.5,111,198,93.6,90.2,101,106,84.6
"CN(C)S(=O)(=O)c1ccc2c(c1)/C(=C/c1cc3c([nH]1)CCCC3)C(=O)N2 + O=C1NC(=O)/C(=C/c2ccc(-c3ccc(F)cc3O)o2)S1 [AS252424] (first compound 2 µM, partner dose 5 µM)",64.2,64.6,86.8,65.7,108,74.6,72,74.3,51.9,84.4
"C=CCn1c(=O)c2cnc(Nc3ccc(N4CCN(C)CC4)cc3)nc2n1-c1cccc(C(C)(C)O)n1 + CCCCCCCCCCCC1=C(O)C(=O)C=C(O)C1=O [Embelin] (first compound 0.1 µM, partner dose 6 µM)",53.1,49.5,66.7,52.7,84.3,72.2,76.2,77.1,71.2,62.4
"C=CCn1c(=O)c2cnc(Nc3ccc(N4CCN(C)CC4)cc3)nc2n1-c1cccc(C(C)(C)O)n1 + COc1cc(N2CCC(N3CCN(C)CC3)CC2)ccc1Nc1ncc(Cl)c(Nc2ccccc2S(=O)(=O)C(C)C)n1 [NVP-TAE684] (first compound 0.1 µM, partner dose 0.4 µM)",75,67.1,86.1,59.2,51.5,80.9,77,58.5,45.7,84.8
"CN(C)S(=O)(=O)c1ccc2c(c1)/C(=C/c1cc3c([nH]1)CCCC3)C(=O)N2 + COC(=O)c1sccc1S(=O)(=O)Nc1ccc(Nc2ccccc2)cc1OC [GSK0660] (first compound 2 µM, partner dose 5 µM)",71.1,64.8,78.5,74.8,108,82.6,75.6,96.8,37.3,76
"CN(C)S(=O)(=O)c1ccc2c(c1)/C(=C/c1cc3c([nH]1)CCCC3)C(=O)N2 + O=C(O)C(=O)Nc1sc2c(c1C(=O)O)CCNC2 [TCS401] (first compound 2 µM, partner dose 8.33333 µM)",69.2,75.1,80.1,80.3,61.6,77,80.1,82.2,59,89.1
"C=CCn1c(=O)c2cnc(Nc3ccc(N4CCN(C)CC4)cc3)nc2n1-c1cccc(C(C)(C)O)n1 + O=C(O)c1ccc(-c2c[nH]c3ncc(-c4ccccc4)cc23)cc1C1CCCC1 [GSK650394] (first compound 0.1 µM, partner dose 0.8 µM)",67.6,82.4,82.2,79.8,71.1,66.7,103,73.4,87,86.7
"C[C@]1(c2nc3c(C(N)=O)cccc3[nH]2)CCCN1 [Veliparib] + O=C(CCCCCCC(=O)Nc1ccccc1)NO [vorinostat] (first compound 7 µM, partner dose 0.4 µM)",76,99.9,94.7,73.4,56.8,85.2,109,81.3,84.4,82.1
"OCCn1cc(-c2cnc3nnn(Cc4ccc5ncccc5c4)c3n2)cn1 + C[C@@H]1CCN(C(=O)CC#N)C[C@@H]1N(C)c1ncnc2[nH]ccc12 [CP690550] (first compound 5 µM, partner dose 5 µM)",84.6,114,362,112,85.6,92.9,116,90.7,88.6,12.4
"NCC(=O)Nc1ccc(-n2nc(C(F)(F)F)cc2-c2ccc3c(ccc4ccccc43)c2)cc1 + COc1ccc(-c2ccc3c(N4CCOCC4)nc(N4C[C@@H](C)O[C@@H](C)C4)nc3n2)cc1CO [KU0063794] (first compound 5 µM, partner dose 0.1 µM)",81.3,58.9,96,91,141,81.9,85.9,102,69.7,88.7
"CO[C@@H]1[C@H](N(C)C(=O)c2ccccc2)C[C@H]2O[C@]1(C)n1c3ccccc3c3c4c(c5c6ccccc6n2c5c31)C(=O)NC4 [Midostaurin] + Cn1cc(/C=C2\C(=O)Nc3cccnc32)c2ccccc21 [GW441756] (first compound 0.4 µM, partner dose 2 µM)",67.2,56.2,87.8,50.1,54.2,80.4,56.7,70.4,46.4,85.2
"NC(=O)Nc1cc(-c2cccc(F)c2)sc1C(=O)N[C@H]1CCCNC1 + O=C(Nc1ccccc1)c1cc([N+](=O)[O-])ccc1Cl [GW9662] (first compound 0.1 µM, partner dose 10 µM)",93,83,91.4,86.5,92,72.4,77.7,67.9,46.5,79.4
"Cc1nc(Nc2ncc(C(=O)Nc3c(C)cccc3Cl)s2)cc(N2CCN(CCO)CC2)n1 [dasatanib] + CCN(CC)CCCCNc1ncc2cc(-c3cc(OC)cc(OC)c3)c(NC(=O)NC(C)(C)C)nc2n1 [PD173074] (first compound 0.02 µM, partner dose 0.5 µM)",75.6,89.7,76.9,114,17.7,79,59,82.5,38.7,55.9
"C=CCn1c(=O)c2cnc(Nc3ccc(N4CCN(C)CC4)cc3)nc2n1-c1cccc(C(C)(C)O)n1 + N#Cc1c(O)c2c(-c3ccc(-c4ccccc4O)cc3)csc2[nH]c1=O [A769662] (first compound 0.1 µM, partner dose 10 µM)",90.5,94.2,119,65.1,92.3,89.6,99.3,79.3,70.8,87.2
"OCCn1cc(-c2cnc3nnn(Cc4ccc5ncccc5c4)c3n2)cn1 + NCC(=O)Nc1ccc(-n2nc(C(F)(F)F)cc2-c2ccc3c(ccc4ccccc43)c2)cc1 [OSU03012] (first compound 5 µM, partner dose 5 µM)",87.5,61.2,81.1,77,72.6,84.2,83.2,107,98.2,84.6
"C[C@]1(c2nc3c(C(N)=O)cccc3[nH]2)CCCN1 [Veliparib] + Cn1nnc2c(C(N)=O)ncn2c1=O [temozolomide] (first compound 7 µM, partner dose 10 µM)",87,89.8,78.8,71.2,61,96.1,84.3,93.2,79.1,84.8
"CN(C)S(=O)(=O)c1ccc2c(c1)/C(=C/c1cc3c([nH]1)CCCC3)C(=O)N2 + O=c1cc(-c2cccc3c2Sc2ccccc2S3)oc(N2CCOCC2)c1 [KU55933] (first compound 2 µM, partner dose 5 µM)",36.1,70.2,90.3,71.9,175,71.1,90.3,73.4,40.6,102
"C=CCn1c(=O)c2cnc(Nc3ccc(N4CCN(C)CC4)cc3)nc2n1-c1cccc(C(C)(C)O)n1 + COc1ccc2c(c1)CCC1C2CCC2(C)C(NCCCCCCN3C(=O)C=CC3=O)CCC12 [U73122] (first compound 0.1 µM, partner dose 2 µM)",80.1,80.3,79.6,67.7,69.3,87.4,101,51,26.2,50.8
